Measured values as given in PubChem BioAssay (NCI).
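Grown in 96-well plates, cells were treated for 48 hours with each compound at five concentrations. Insufficient inhibition: endpoint recorded as highest concentration tested. The concentration for 50% growth inhibition is given as GI50.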 The source holds more than one record for some entries. The list is limited to them. There may be further records. For some assays here: Records of one sample usually come from different ranges of test concentrations, which the source does not state; some values may only mark the edge of a range. What stands in brackets tells the records apart. Letters hold for one entry only. For some assays here: The records of an entry are repeated measurements (runs, samples, wells, individuals or studies).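 The concentration for full growth arrest is given as TGI.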

Key:
Assay in all cases: inhibition of tumour cell growth, NCI panel, 48 h
DMS 273 small cell lung = system: DMS 273 small cell lung
OVCAR-5 ovarian = system: OVCAR-5 ovarian
UACC-257 melanoma = system: UACC-257 melanoma
XF 498 CNS = system: XF 498 CNS
A549 NSCLC = system: A549 NSCLC
A498 renal = system: A498 renal
SF-539 CNS = system: SF-539 CNS
SW-620 colon = system: SW-620 colon
MALME-3M melanoma = system: MALME-3M melanoma
IGROV1 ovarian = system: IGROV1 ovarian
SF-268 CNS = system: SF-268 CNS
SF-295 CNS = system: SF-295 CNS
SN12C renal = system: SN12C renal
LOX IMVI melanoma = system: LOX IMVI melanoma
M14 melanoma = system: M14 melanoma
DLD-1 colon = system: DLD-1 colon
SK-MEL-2 melanoma = system: SK-MEL-2 melanoma
NCI-H226 lung = system: NCI-H226 lung
LXFL 529 NSCLC = system: LXFL 529 NSCLC
SR leukemia = system: SR leukemia
RPMI-8226 leukemia = system: RPMI-8226 leukemia
SK-MEL-5 melanoma = system: SK-MEL-5 melanoma
NCI-H23 lung = system: NCI-H23 lung
SNB-75 CNS = system: SNB-75 CNS
HOP-18 NSCLC = system: HOP-18 NSCLC
HL-60(TB) leukemia = system: HL-60(TB) leukemia
CAKI-1 renal = system: CAKI-1 renal
ACHN renal = system: ACHN renal

With `O=C1NC2C(CC(O)C(O)C2O)c2cc3c(c(O)c21)OCO3` (stereo unspecified) the GI50 (DMS 273 small cell lung) was 124 nM [sample A, 1 test] and < 16.8 nM [sample A, mean of 2 tests] and 2.65 µM [sample B, mean of 2 tests], the TGI (DMS 273 small cell lung) was 564 nM [sample A, 1 test] and 61.6 nM [sample A, mean of 2 tests] and 12.5 µM [sample B, mean of 2 tests] and the GI50 (OVCAR-5 ovarian) was 190 nM, 25.6 nM [sample A, mean of 2 tests] and 5.01 µM [sample B, mean of 2 tests]. The TGI (OVCAR-5 ovarian) was 636 nM, 79.2 nM [sample A, mean of 2 tests] and 26.4 µM [sample B, mean of 2 tests], the GI50 (UACC-257 melanoma) was 53.2 nM, 17.4 nM [sample A, mean of 2 tests] and 2.21 µM [sample B, mean of 2 tests] and the TGI (UACC-257 melanoma) was 287 nM, 87.9 nM [sample A, mean of 2 tests] and 12.6 µM [sample B, mean of 2 tests]. The GI50 (XF 498 CNS) was 22.4 nM, < 10.4 nM [sample A, mean of 2 tests] and 933 nM [sample B, mean of 2 tests], the TGI (XF 498 CNS) was 142 nM, 43.7 nM [sample A, mean of 2 tests] and 5.46 µM [sample B, mean of 2 tests] and the GI50 (A549 NSCLC) was 106 nM, 18.1 nM [sample A, mean of 2 tests] and 3.55 µM [sample B, mean of 2 tests]. For the same molecule, the TGI (A549 NSCLC) was 669 nM, 234 nM [sample A, mean of 2 tests] and 29.8 µM [sample B, mean of 2 tests], the GI50 (A498 renal) was 136 nM, 26.5 nM [sample A, mean of 2 tests] and 3.62 µM [sample B, mean of 2 tests] and the TGI (A498 renal) was 457 nM, 128 nM [sample A, mean of 2 tests] and 17.8 µM [sample B, mean of 2 tests]. The GI50 (SF-539 CNS) was 51.6 nM, < 13.4 nM [sample A, mean of 2 tests] and 2.32 µM [sample B, mean of 2 tests], the TGI (SF-539 CNS) was 206 nM, 35.9 nM [sample A, mean of 2 tests] and 6.44 µM [sample B, mean of 2 tests] and the GI50 (SW-620 colon) was 47.2 nM, < 14.8 nM [sample A, mean of 2 tests] and 3.05 µM [sample B, mean of 2 tests]. For the same molecule, the TGI (SW-620 colon) was 678 nM, 69.6 nM [sample A, mean of 2 tests] and 23.4 µM [sample B, mean of 2 tests], the GI50 (MALME-3M melanoma) was 59.8 nM, 18.3 nM [sample A, mean of 2 tests] and 1.92 µM [sample B, mean of 2 tests] and the TGI (MALME-3M melanoma) was 309 nM, 71 nM [sample A, mean of 2 tests] and 7.47 µM [sample B, mean of 2 tests]. For the same molecule, the GI50 (IGROV1 ovarian) was 26.6 nM [sample A, 1 test] and 145 nM [sample A, mean of 2 tests] and 4.57 µM [sample B, 1 test], the TGI (IGROV1 ovarian) was 64.8 nM [sample A, 1 test] and 626 nM [sample A, mean of 2 tests] and 45.2 µM [sample B, 1 test] and the GI50 (SF-268 CNS) was 44.4 nM, < 15.9 nM [sample A, mean of 2 tests] and 1.38 µM [sample B, mean of 2 tests]. The TGI (SF-268 CNS) was 300 nM, 82.4 nM [sample A, mean of 2 tests] and 8.66 µM [sample B, mean of 2 tests], the GI50 (SF-295 CNS) was 94.8 nM, 20.2 nM [sample A, mean of 2 tests] and 3.81 µM [sample B, mean of 2 tests] and the TGI (SF-295 CNS) was 520 nM, 143 nM [sample A, mean of 2 tests] and 35.1 µM [sample B, mean of 2 tests]. For the same molecule, the GI50 (SN12C renal) was 48.8 nM, 15.8 nM [sample A, mean of 2 tests] and 2.22 µM [sample B, mean of 2 tests], the TGI (SN12C renal) was 367 nM, 104 nM [sample A, mean of 2 tests] and 13 µM [sample B, mean of 2 tests] and the GI50 (LOX IMVI melanoma) was 31.5 nM, 10.1 nM [sample A, mean of 2 tests] and 1.34 µM [sample B, mean of 2 tests]. For the same molecule, the TGI (LOX IMVI melanoma) was 282 nM, 24.2 nM [sample A, mean of 2 tests] and 4.4 µM [sample B, mean of 2 tests], the GI50 (M14 melanoma) was 49 nM, < 12.3 nM [sample A, mean of 2 tests] and 1.94 µM [sample B, mean of 2 tests] and the TGI (M14 melanoma) was 180 nM, 30.1 nM [sample A, mean of 2 tests] and 5.38 µM [sample B, mean of 2 tests]. The GI50 (DLD-1 colon) was 37.3 nM [sample A, 1 test] and 20.1 nM [sample A, mean of 2 tests] and 2.97 µM [sample B, 1 test], the TGI (DLD-1 colon) was 250 nM [sample A, 1 test] and 15.3 µM [sample B, 1 test] and the GI50 (SK-MEL-2 melanoma) was 46.6 nM [sample A, 1 test] and < 16.5 nM [sample A, mean of 2 tests] and 2.28 µM [sample B, mean of 2 tests]. For the same molecule, the TGI (SK-MEL-2 melanoma) was 362 nM [sample A, 1 test] and 66.8 nM [sample A, mean of 2 tests] and 10 µM [sample B, mean of 2 tests], the GI50 (NCI-H226 lung) was 82.1 nM, < 14.1 nM [sample A, mean of 2 tests] and 2.17 µM [sample B, mean of 2 tests] and the TGI (NCI-H226 lung) was 259 nM, 44.1 nM [sample A, mean of 2 tests] and 7.13 µM [sample B, mean of 2 tests]. For the same molecule, the GI50 (LXFL 529 NSCLC) was 43.3 nM, < 13 nM [sample A, mean of 2 tests] and 2.4 µM [sample B, mean of 2 tests], the TGI (LXFL 529 NSCLC) was 487 nM, 85.8 nM [sample A, mean of 2 tests] and 14.6 µM [sample B, mean of 2 tests] and the GI50 (SR leukemia) was 19.9 nM [sample A, 1 test] and < 11.2 nM [sample A, mean of 2 tests] and 2.14 µM [sample B, mean of 2 tests]. The TGI (SR leukemia) was 83.7 nM [sample A, 1 test] and 30.5 nM [sample A, mean of 2 tests] and 6.46 µM [sample B, mean of 2 tests], the GI50 (RPMI-8226 leukemia) was 11.1 nM [sample A, 1 test] and 40.6 nM [sample A, mean of 2 tests] and 1.89 µM [sample B, 1 test] and the TGI (RPMI-8226 leukemia) was 44.2 nM [sample A, 1 test] and 225 nM [sample A, mean of 2 tests] and 6.84 µM [sample B, 1 test]. The GI50 (SK-MEL-5 melanoma) was 45 nM, < 10 nM [sample A, 1 test] and 1.68 µM [sample B, mean of 2 tests], the TGI (SK-MEL-5 melanoma) was 194 nM, 446 nM [sample A, 1 test] and 27.4 µM [sample B, mean of 2 tests] and the GI50 (NCI-H23 lung) was 46.5 nM, < 13.6 nM [sample A, mean of 2 tests] and 2.58 µM [sample B, mean of 2 tests]. For the same molecule, the TGI (NCI-H23 lung) was 219 nM, 49 nM [sample A, mean of 2 tests] and 8.72 µM [sample B, mean of 2 tests], the GI50 (SNB-75 CNS) was 36.5 nM, < 21 nM [sample A, mean of 2 tests] and 711 nM, 966 nM [sample B, mean of 2 tests] and the TGI (SNB-75 CNS) was 306 nM, 160 nM [sample A, mean of 2 tests] and 14.9 µM [sample B, mean of 2 tests]. For the same molecule, the GI50 (HOP-18 NSCLC) was 15.5 nM [sample A, 1 test] and 122 nM [sample A, mean of 2 tests] and 2.56 µM [sample B, 1 test], the TGI (HOP-18 NSCLC) was 381 nM [sample A, 1 test] and 609 nM [sample A, mean of 2 tests] and 20.7 µM [sample B, 1 test] and the GI50 (HL-60(TB) leukemia) was 23.6 nM, 10.1 nM [sample A, mean of 2 tests] and 1.71 µM [sample B, mean of 2 tests]. The TGI (HL-60(TB) leukemia) was 76.1 nM, < 21.5 nM [sample A, mean of 2 tests] and 4.75 µM [sample B, mean of 2 tests], the GI50 (CAKI-1 renal) was < 18.9 nM [sample A, mean of 2 tests] and 3.18 µM [sample B, mean of 2 tests] and the TGI (CAKI-1 renal) was 500 nM [sample A, 1 test] and 124 nM [sample A, mean of 2 tests] and 18.4 µM [sample B, mean of 2 tests]. For the same molecule, the GI50 (ACHN renal) was 87.7 nM, < 16 nM [sample A, mean of 2 tests] and 2.5 µM [sample B, mean of 2 tests] and the TGI (ACHN renal) was 476 nM, 63.9 nM [sample A, mean of 2 tests] and 10.7 µM [sample B, mean of 2 tests].
